The values below come from patent publication US20210188948A1.

For the experiment, the target named is DENV2 recombinant E protein (Native Antigen) (Dengue virus serotype 2). Put plainly: ELISA, plate-coated DENV2 rE. For orientation: In an ELISA, binding on a coated surface is turned into a signal by an enzyme label.

For the substance mouse monoclonal antibody 3H5-1, the Binding DENV2 rE (OD450 fold change over negative controls) was determined as 5.3 fold.

Consider WNV-specific mAb CR4354 (antibody), for which the Binding DENV2 rE (OD450 fold change over negative controls) came out at 1 fold.
